# Experimental data: the supplement of paper PMC10369915
# The list shows a part of the results. Cut-off read from the data, not from the text of the source: active = 3.2 or more and inactive = the rest. The signal is at background level for most entries.
# Assays:
# Assay in all cases: enrichment score (SH2-bound / input frequency) (ratio); bacterial display of known human phosphotyrosine sites (pTyr-Var adds point mutants) read by sequencing; higher = stronger binding; tyrosines were phosphorylated by kinases first
# Settings in all cases: peptide library: pTyr-Var
# SHP2 C-SH2 domain E139D = biological target: SHP2 C-SH2 domain E139D
# [1] = biological target: SHP2 C-SH2 domain wild-type
# SHP2 N-SH2 domain L43F = biological target: SHP2 N-SH2 domain L43F
# SHP2 N-SH2 domain T42A = biological target: SHP2 N-SH2 domain T42A
# SHP2 N-SH2 domain T52S = biological target: SHP2 N-SH2 domain T52S
# [2] = biological target: SHP2 N-SH2 domain wild-type
# 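Note: displayed peptides selected on beads carrying the immobilized SH2 domain, with library peptides lacking any tyrosine serving as negative controls.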
Binder,enrichment score (SHP2 C-SH2 domain E139D),enrichment score [1],enrichment score (SHP2 N-SH2 domain L43F),enrichment score (SHP2 N-SH2 domain T42A),enrichment score (SHP2 N-SH2 domain T52S),enrichment score [2]
APQFTYAQGGQ [FLNA_Y1763_YF],inactive: 0.839,inactive: 0.378,inactive: 0.682,inactive: 0.634,inactive: 0.711,inactive: 0.718
SAVTGYRVNVI [FN1_Y937_D940N],inactive: 1,inactive: 0.874,inactive: 0.847,inactive: 0.937,inactive: 0.975,inactive: 0.903
TFACSYTPVKA [FLNB_Y708_YF],inactive: 2.27,inactive: 1.47,inactive: 1.29,inactive: 3.05,inactive: 1.06,inactive: 1.4
HPWPQYTTRAP [FNDC1_Y1281],inactive: 0.963,inactive: 0.77,inactive: 0.811,inactive: 0.788,inactive: 0.841,inactive: 0.782
GTYVIYVRFGG [FLNB_Y1687],inactive: 1.27,inactive: 1.27,inactive: 1.3,inactive: 1.37,inactive: 1.33,inactive: 1.45
IDQDKYAVHFI [FLNA_Y2388_R2391H],inactive: 0.787,inactive: 0.815,inactive: 0.955,inactive: 0.65,inactive: 0.915,inactive: 0.877
QLAPQYTYAQG [FLNA_Y1761],inactive: 0.823,inactive: 1.47,inactive: 0.667,inactive: 0.755,inactive: 0.763,inactive: 0.872
SAVTGYRVDVI [FN1_Y937],inactive: 0.781,inactive: 0.565,inactive: 0.726,inactive: 0.477,inactive: 0.584,inactive: 0.546
YGMSSYITRED [FNDC3B_Y180_T179S],inactive: 0.941,inactive: 0.914,inactive: 1.01,inactive: 0.74,inactive: 0.826,inactive: 0.97
GTFVIYVRFGG [FLNB_Y1687_YF],inactive: 0.37,inactive: 0.583,inactive: 0.481,inactive: 0.33,inactive: 0.327,inactive: 0.656
RMDGTYACSYT [FLNB_Y704],inactive: 0.581,inactive: 0.552,inactive: 0.706,inactive: 0.588,inactive: 0.564,inactive: 0.679
KKARAYGPGIE [FLNA_Y287],inactive: 0.412,inactive: 0.385,inactive: 0.56,inactive: 0.46,inactive: 0.411,inactive: 0.504
YGMSTYITRED [FNDC3B_Y180],inactive: 0.88,inactive: 0.974,inactive: 0.813,inactive: 0.822,inactive: 0.848,inactive: 1.03
SLAARYYNWVC [FLT4_Y1230_S1235C],inactive: 2.35,inactive: 2.59,inactive: 2.22,inactive: 2.17,inactive: 1.9,inactive: 2
SLAARYFNWVC [FLT4_Y1230_S1235C_YF],inactive: 3.1,inactive: 2.69,inactive: 2.81,inactive: 2.25,inactive: 2.69,inactive: 2.94
KGEDFYFVTCH [FHL1_Y149_C150Y_YF],inactive: 0.721,inactive: 1.01,inactive: 0.672,inactive: 0.601,inactive: 0.596,inactive: 0.836
GGQVFHNSEYG [FLT4_Y1333_Y1333H],inactive: 0.814,inactive: 0.706,inactive: 0.714,inactive: 0.577,inactive: 0.685,inactive: 0.769
TCFDKYTGSTY [FN1_Y101_N104S],inactive: 0.701,inactive: 0.655,inactive: 0.629,inactive: 0.543,inactive: 0.68,inactive: 0.76
YKIYRYTLNDN [FN1_Y1975_L1974R],inactive: 0.873,inactive: 0.798,inactive: 0.692,inactive: 0.715,inactive: 0.822,inactive: 0.844

Binder,enrichment score (SHP2 C-SH2 domain E139D),enrichment score [1],enrichment score (SHP2 N-SH2 domain L43F),enrichment score (SHP2 N-SH2 domain T42A),enrichment score (SHP2 N-SH2 domain T52S),enrichment score [2]
CERLPYDASKW [FLT1_Y815],inactive: 0.616,inactive: 0.788,inactive: 0.636,inactive: 0.67,inactive: 0.684,inactive: 0.83
TCFDKYTGNTY [FN1_Y101],inactive: 1.01,inactive: 1.27,inactive: 0.89,inactive: 0.834,inactive: 0.826,inactive: 1.58
GGQVFHNSEFG [FLT4_Y1333_Y1333H_YF],inactive: 0.944,inactive: 0.741,inactive: 0.757,inactive: 0.626,inactive: 0.686,inactive: 0.805
TCFDKYTGNTF [FN1_Y101_YF],inactive: 1.01,inactive: 1.42,inactive: 0.829,inactive: 0.867,inactive: 0.803,inactive: 1.41
KGEDFYCVTFH [FHL1_Y149_C153Y_YF],inactive: 0.779,inactive: 1.28,inactive: 1.12,inactive: 0.837,inactive: 1.02,inactive: 1.59
YKIYLYTLNDN [FN1_Y1975],inactive: 0.895,inactive: 1.29,inactive: 1.44,inactive: 1.03,inactive: 1.16,inactive: 1.2
LAARYYNWVSF [FLT4_Y1231],active: 3.73,active: 3.75,active: 3.6,active: 3.69,active: 3.89,active: 3.31
PQDSAYHSGIQ [FLG_Y3940_S3935P],inactive: 0.578,inactive: 0.484,inactive: 0.536,inactive: 0.552,inactive: 0.579,inactive: 0.798
AVEDQYFCVDC [FHL1_Y207_YF],inactive: 1.71,inactive: 1.61,inactive: 1.68,inactive: 1.42,inactive: 1.56,inactive: 1.78
AVDMTYDGHPV [FLNB_Y1020_V1018M],inactive: 0.659,inactive: 0.485,inactive: 0.664,inactive: 0.581,inactive: 0.601,inactive: 0.579
LGLDEYLDKLK [FMNL2_Y352],inactive: 1.03,inactive: 1.15,inactive: 1.02,inactive: 0.958,inactive: 1.02,inactive: 0.979
ISNATYKEIGL [FLT1_Y199],inactive: 0.81,inactive: 0.614,inactive: 1.02,inactive: 0.519,inactive: 0.823,inactive: 0.657
KGEDFYSVTCH [FHL1_Y149_C150S],inactive: 0.826,inactive: 1.02,inactive: 0.832,inactive: 0.689,inactive: 0.808,inactive: 1.25
APQYTYTQGGQ [FLNA_Y1763_A1764T],inactive: 0.927,inactive: 0.816,inactive: 0.296,inactive: 1.72,inactive: 1.49,inactive: 2.37
EIIPFYGMSTY [FNDC3B_Y175],inactive: 0.881,inactive: 0.945,inactive: 0.827,inactive: 0.917,inactive: 0.947,inactive: 0.956
VEDQYYCVDCY [FHL1_Y208],active: 6.33,active: 5.22,active: 6.12,active: 5.57,active: 4.95,active: 5.47
LAARYYNWVCF [FLT4_Y1231_S1235C],inactive: 1.64,inactive: 1.76,inactive: 1.87,inactive: 1.39,inactive: 1.36,inactive: 1.8
DQNVEYKGTVS [FHL1_Y117_W122S],inactive: 0.643,inactive: 0.524,inactive: 0.446,inactive: 0.451,inactive: 0.631,inactive: 0.692
